# Test results from PubChem BioAssay AID686971 (National Center for Advancing Translational Sciences (NCATS), 2013).
# Screen size: about 360,000 compounds; about 7,500 (2.1%) were called active. The inconclusive results got no clear call from the source; some entries with a clear call stand among them for comparison. Calls follow the shape of the dose curve; as a rule, active = well fitted cell-killing curve with a large enough effect; inconclusive = small, poorly fitted or top-dose-only effect, or effect the other way, or another doubt; inactive = no such curve, though single readings can be large or run the other way. Potencies of inconclusive entries are left out as doubtful fits.
# Test: qHTS for induction of synthetic lethality in tumor cells producing 2HG: qHTS for the HT-1080-IDH1KD cell line;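 as to activity, negative = toxicity: 0% = DMSO wells and -100% = cell-free medium wells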
# Settings: HT-1080 IDH1 knockdown viability, ATP luminescence, 48 h; activity, negative = toxicity: at 46.1 µM (top of the series) unless noted
# Summary of the method: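 Knockdown cells (IDH1KD HT-1080) received compounds 2 h after plating at 750 cells/well and were kept 48 h at 37 °C in 5% FBS RPMI. A CellTiter-Glo luminescence read gave % activity for curve fitting.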
# Potency is read from the fitted curve at half-maximal effect; tags tell the direction and shape of the fitted curve.
SMILES,"activity, negative = toxicity",Potency
CN(CC(=O)Nc1cccc(F)c1)C(=O)c1ccccc1OCC(=O)Nc1cccc(C(F)(F)F)c1,inactive: -16.5%,–
CC(C)(Cc1cccc(CC(C)(C)C(=O)O)c1)C(=O)O,inactive: 3.86%,–
O=Cc1c[nH]c2ccc(C(=O)c3ccccc3)cc12,inactive: -12.1%,–
O=C(Cn1c(-c2ccccc2)c[n+]2ccsc12)c1ccc([N+](=O)[O-])cc1,–,"inconclusive [cytotoxic, single point]"
O=C(c1ccc(Cl)c(S(=O)(=O)N2CCCCC2)c1)N1CCN(c2ccccc2)CC1,–,"inconclusive [cytotoxic, single point]"
CCc1cccc2sc(N3CCN(C(=O)c4ccc([N+](=O)[O-])o4)CC3)nc12,–,"inconclusive [cytotoxic, single point]"
O=C(c1cc(-c2ccc(Cl)cc2)n(-c2ccc(Cl)c(Cl)c2)n1)N1CCOCC1,–,"inconclusive [cytotoxic, single point]"
CC(Oc1ccc(F)cc1)C(=O)Nc1sc2c(c1C(=O)NCc1cccnc1)CCCC2 (centres undefined),–,"inconclusive [cytotoxic, partial curve]"
Cc1cccc(NC(=O)c2nc[nH]c2C(=O)NC[C@H](C)O)c1,inactive: -1.34%,–
COc1ccc(/C=C/C(=O)NC(=S)NNC(=O)c2cccs2)cc1,–,"inconclusive [cytotoxic, full curve]"
COc1ccc(NS(=O)(=O)c2cc(NC(=O)c3ccc(Cl)cc3)ccc2N2CCOCC2)cc1,–,active: 2.59 µM
CC(=O)NC1(C(F)(F)F)C(=O)Nc2c1c(=O)n(C)c(=O)n2C (centres undefined),inactive: 14.1%,–
COC(=O)CSC1=C(C#N)C(c2ccsc2)CC(=O)N1 (centres undefined),–,"inconclusive [cytotoxic, single point]"
Cc1cc(C(=O)Nc2ccc(Nc3ccccc3)cc2)ccc1[N+](=O)[O-],–,"inconclusive [cytotoxic, partial curve, poor fit]"
COc1cccc(-c2nc(Oc3cccc(C)c3C)c3ccccc3n2)c1O,inactive: 13.2%,–
O=C(Nc1ccccc1F)Nc1ccccc1Br,inactive: -5.91%,–
CCOc1ccc(-n2c(N)c(C(=O)NCc3ccco3)c3nc4ccccc4nc32)cc1,–,"inconclusive [cytotoxic, single point]"
Cc1cc(OCCCCCn2ccnc2)cc(C)c1Cl,–,"inconclusive [cytotoxic, partial curve]"
O=C(NCc1ccc(Cl)c(Cl)c1)c1ccc2c(c1)OCO2,–,"inconclusive [cytotoxic, single point]"
COc1ccc(C(=O)N[C@H](C(=O)Nc2nc3ccccc3[nH]2)C(C)C)cc1,–,active: 5.8 µM
CCN1CCN(S(=O)(=O)c2ccc(Cl)c(C(=O)N(C)Cc3ccco3)c2)CC1,inactive: 6.5%,–
Cc1cc(OCC(=O)Nc2ccccc2N2CCCC2)ccc1C(C)C,inactive: -3.07%,–
COC(=O)c1ccc(C(=O)OC)c(NC(=S)N2CCN(C(=O)C3CCCO3)CC2)c1 (centres undefined),inactive: 2.07%,–
Cc1cc(NC(=O)c2cccc(Br)c2)n[nH]1,inactive: 1.84%,–
COc1cc2nc(N3CCCN(C)CC3)nc(NC3CCCCC3)c2cc1OC,–,"inconclusive [cytotoxic, partial curve]"

SMILES,"activity, negative = toxicity",Potency
COCCNc1c2c(nc3c(-c4ccccc4)c(C)nn13)CCCC2,–,"inconclusive [cytotoxic, single point]"
CCN1CCN(C(=O)c2cc(-c3ccc(Cl)s3)nc3ccccc23)CC1,–,"inconclusive [cytotoxic, single point]"
CCOC(=O)N1CCC(NC(=O)c2cc(C(=O)Nc3ccc(OCC)cc3)ccc2CO)CC1,–,"inconclusive [cytotoxic, single point]"
COCCCNC(=O)c1cccc2c(-c3ccc(OC)cc3C)coc12,–,"inconclusive [cytotoxic, single point]"
O=C(c1[nH]ncc1-c1ccccc1)C1CO1 (centres undefined),–,"inconclusive [cytotoxic, partial curve]"
CCN(Cc1nc2ccccc2c(=O)[nH]1)C(=O)c1cccc(OCc2c(C)noc2C)c1,–,"inconclusive [cytotoxic, single point]"
O=C(O)CCc1ccc(-c2ccc(Cl)cc2)n1CCC(=O)O,–,"inconclusive [cytotoxic, single point]"
COc1cc(/C=N/NC(=O)c2cc(-c3cccc(Br)c3)nc3ccccc23)cc(OC)c1O,–,active: 11.6 µM
CSc1cc(C)nc(NC(C)=O)n1,–,"inconclusive [rising, single point]"
Cc1ccc2[nH]c(C(=O)N/N=C/c3ccccc3C(=O)O)c(-c3ccccc3)c2c1,inactive: -25.9%,–
O=C(Cn1cc([N+](=O)[O-])nc1[N+](=O)[O-])N1CCN(c2ccccc2)CC1,–,active: 25.9 µM
O=C(C[n+]1ccc(-c2cc(C(=O)Nc3cccc(C(F)(F)F)c3)c3ccccc3n2)cc1)c1cccc([N+](=O)[O-])c1,–,"inconclusive [cytotoxic, single point]"
O=S(Cc1ccc(Cl)cc1)CC(O)COc1ccc(Cl)cc1 (centres undefined),–,"inconclusive [cytotoxic, single point]"
O=C(Nc1nnc(C2CC2)o1)c1ccc(S(=O)(=O)N2CCCc3ccccc32)cc1,–,"inconclusive [cytotoxic, partial curve]"
COc1c(C)cc(C(O)c2ncc(-c3ccc(C(F)(F)F)cc3)[nH]2)cc1C (centres undefined),–,active: 16.4 µM
COc1ccc(C2c3c(-c4ccccc4O)n[nH]c3C(=O)N2CCc2ccc(OC)c(OC)c2)cc1 (centres undefined),–,"inconclusive [cytotoxic, single point]"
Cc1cccc(-n2c(SCC(=O)Nc3ncc(Cl)cc3Cl)nc3ccccc32)c1,–,"inconclusive [cytotoxic, partial curve, poor fit]"
COc1ccc(-c2ccc(CCC(=O)O)n2CC(C)C)cc1,–,"inconclusive [cytotoxic, single point]"
O=C(NC(NC(=S)Nc1ccccc1)C(Cl)(Cl)Cl)c1cccc(Cl)c1 (centres undefined),–,"inconclusive [cytotoxic, single point]"
Cc1ccc(S(=O)(=O)Nc2ccc(Cl)cc2O)cc1,–,"inconclusive [cytotoxic, single point]"
CCCCCOc1ccc(Br)cc1/C(C)=N/NC1=NCCN1,–,active: 5.17 µM
CCCOc1ccc(C(O)(CCN2CCCCC2)c2ccccc2OC)cc1 (centres undefined),–,"inconclusive [cytotoxic, single point]"
C/C(=N\NC(=O)c1ccc(Br)cc1)C1C(=O)c2ccccc2C1=O,–,active: 1 µM
COc1ccccc1N1CCN(c2nc3c(C)cccn3c(=O)c2C=O)CC1,–,"inconclusive [cytotoxic, partial curve, poor fit]"
CCCCn1c(-c2nn(C)cc2Cl)n[nH]c1=S,inactive: -4.22%,–

SMILES,"activity, negative = toxicity",Potency
CCOc1ccc(OCCC(=O)N(CC)CC(=O)Nc2ccccc2OC)cc1,inactive: -5.92%,–
CC1(C)CC(=O)C/C(=N/NC(=O)COc2ccc(Cl)cc2Cl)C1,inconclusive: -32.3% [cytotoxic],–
COc1ccc2nc(NC(=O)c3ccccc3F)sc2c1,inactive: -13.4%,–
CN(CC1CCN(CCc2cccc(C(F)(F)F)c2)CC1)C(=O)c1ccccc1,inactive: 11.1%,–
C=CCn1c(Oc2ccccc2F)nc2c1c(=O)n(C)c(=O)n2C,inactive: -6.73%,–
COc1ccc(N2CCN(C(=O)c3ccc(CSc4ccccc4)cc3)CC2)cc1,inactive: -0.23%,–
C=CCn1c(C)cc(C(=O)Cn2ncc(Cl)c(Cl)c2=O)c1C,–,active: 3.26 µM
CS(=O)(=O)c1ccc(S(=O)CC(=O)OCc2ccccc2)c([N+](=O)[O-])c1 (centres undefined),–,active: 4.11 µM
O=C(Nc1ccc(Cl)cn1)C1CCN(c2ncnc3c2nc2n3CCCCC2)CC1,–,"inconclusive [cytotoxic, partial curve]"
Cc1ccc(N(C(=O)CNC(=O)c2ccco2)C(C(=O)NC2CCCCC2)c2ccncc2)c(C)c1 (centres undefined),inactive: 0.372%,–
CCOC(=O)c1ccc(NC(=O)Cn2cnc3cc(C)c(C)cc32)cc1,–,"inconclusive [cytotoxic, partial curve]"
O=C(C=C=Nc1ccccc1)C(=O)N=C=Cc1ccccc1,–,active: 3.66 µM
O=C(/C(=C/c1ccc(Cl)cc1)c1nc2ccccc2[nH]1)c1ccccc1,–,active: 4.11 µM
Cc1ccc(OCC(=O)NNC(=O)C(=O)NC(C)(C)C)cc1,inactive: 0.167%,–
O=C(OCc1ccc(Br)cc1)c1cc([N+](=O)[O-])ccc1N1CCOCC1,–,active: 2.59 µM
Cn1nccc1C(=O)NC1CCCc2c1cnn2-c1ccc(F)cc1F (centres undefined),–,active: 0.92 µM
N#CC(C#N)=CN=c1ccn(Cc2ccc(Cl)cc2Cl)cc1,–,"inconclusive [cytotoxic, partial curve]"
CCN1CCN(C(=O)c2cc3cc(F)ccc3[nH]2)CC1,inactive: -10.7%,–
COc1ccc(-c2cn3ccc4ccccc4c3n2)cc1,–,"inconclusive [cytotoxic, partial curve]"
O=c1c2ccccc2sn1-c1cc(S(=O)(=O)N2CCOCC2)ccc1N1CCOCC1,–,"inconclusive [cytotoxic, single point]"
CC1(C)Cc2c(sc(NC(=O)COc3ccc(Cl)cc3)c2C#N)C(C)(C)N1,–,"inconclusive [cytotoxic, single point]"
C[C@@H]1CC[C@]2(O[C@H](CCO)C[C@H](O)[C@H]2O)O1,inactive: 17.1%,–
CCn1c2ccccc2c2cc(NC(=O)COc3ccccc3OC)ccc21,–,active: 16.4 µM
COc1ccc(CCN2C(=O)c3ccccc3C2c2nnnn2C(C)C)cc1OC (centres undefined),–,"inconclusive [rising, single point]"
